Values joined by “and” are separate entries in the source; they are usually repeats but may differ in a detail not shown here. Equal values may be shown once. The campaign covered roughly 230,000 compounds. About 3,600 (1.6%) were called active. The inconclusive results got no clear call from the source; some entries with a clear call stand among them for comparison. Calls come from the whole dose curve; as a rule, active = well fitted inhibition curve with a large enough effect (not every such curve was filed as active); inconclusive = small, poorly fitted or top-dose-only effect, or another doubt; inactive = no such curve, though single readings can be large or run the other way. Potencies beside an inconclusive call are fits to weak or partial responses and may not hold up.
biological target: Lysine-specific demethylase 4E (Homo sapiens) (UniProt B2RXH2); test: qHTS Assay for Inhibitors of Human Jumonji Domain Containing 2E (JMJD2E); details: JMJD2E catalytic domain, FDH-coupled NADH fluorescence (FDH is formaldehyde dehydrogenase); series mostly up to 57.1 µM; activity change, negative = inhibition: at the top concentration
Chain of UniProt B2RXH2 (B2RXH2 whole entry, looked up, the tested form may be a part): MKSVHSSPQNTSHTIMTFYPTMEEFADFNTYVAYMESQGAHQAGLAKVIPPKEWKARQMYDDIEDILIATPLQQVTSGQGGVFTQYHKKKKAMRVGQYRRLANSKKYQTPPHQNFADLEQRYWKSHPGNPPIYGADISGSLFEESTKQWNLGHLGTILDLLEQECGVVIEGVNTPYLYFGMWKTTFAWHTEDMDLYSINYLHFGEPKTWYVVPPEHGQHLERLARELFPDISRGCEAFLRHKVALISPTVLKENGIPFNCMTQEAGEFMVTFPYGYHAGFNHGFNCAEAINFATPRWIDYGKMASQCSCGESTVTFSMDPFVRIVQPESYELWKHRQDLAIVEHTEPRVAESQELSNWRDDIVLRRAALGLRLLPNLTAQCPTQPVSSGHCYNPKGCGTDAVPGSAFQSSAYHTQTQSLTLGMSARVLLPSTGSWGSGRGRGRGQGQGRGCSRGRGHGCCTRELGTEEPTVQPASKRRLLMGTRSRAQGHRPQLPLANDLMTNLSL
Note: nearly all actives have a fitted effect of over 50% in size.
Potency is the fitted concentration of half-maximal effect; tags give direction and shape of the fitted curve.
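Throughout, for activity change, negative = inhibition: 0% = wells with enzyme and -100% = buffer wells without enzyme.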

Row | Compound | Potency | activity change, negative = inhibition
1 | Cc1ccc(C)c(C(=O)CSc2n[nH]c(C)n2)c1 | inconclusive: 35.5 µM [inhibitor, single point] | 
2 | O=c1c2c(nc3c(-c4cccc(Br)c4)c[nH]n13)CCCC2 |  | inactive: 0.774%
3 | CCN(CC)c1ccc(C(=O)N/N=C(\C)c2ccc(OC)c(OC)c2)cc1 |  | inactive: -24.4%
4 | CCOc1ccccc1NC(=O)CSc1nnc(-c2ccccn2)n1Cc1ccco1 | inconclusive: 25.1 µM [inhibitor, single point] | 
5 | CCOc1ccc2nc(SC3CC(=O)N(c4cccc(OC)c4)C3=O)sc2c1 (stereo not drawn) |  | inactive: -18.2%
6 | Nc1nnc(CSCc2ccc(F)cc2)s1 |  | inactive: -7.36%
7 | COc1ccc(S(=O)(=O)Nc2cc(C)ccn2)cc1 | inconclusive: 28.2 µM [inhibitor, partial curve] | 
8 | COc1ccc2c(=O)c(C(=O)O)c(-c3ccc4c(c3)OCO4)n(C)c2c1 | inconclusive: 22.4 µM [inhibitor, partial curve] | 
9 | CC1=NN(c2ccc(C(=O)OC(C)C)cc2)C(=O)/C1=C\C=C\c1ccco1 |  | inactive: 3.89%
10 | CNc1nc(SC)nc2ccccc12 | inconclusive: 28.2 µM [inhibitor, partial curve] | 
11 | CCNc1oc(-c2cccc3ccccc23)nc1C#N | inconclusive: 11.2 µM [inhibitor, partial curve] | 
12 | CCN(CC)CCOCCOC(=O)C1(c2ccccc2)CCCC1 | inconclusive: 28.2 µM [inhibitor, partial curve, poor fit] and inconclusive: 31.6 µM [inhibitor, single point] | 
13 | C=CCN1C(=O)/C(=c2\sc3nc(=O)c(Cc4ccccc4)nn3c2=O)c2ccccc21 |  | inactive: -11.8%
14 | COc1ccc(-c2csc(NC(=O)CSc3n[nH]c(N)n3)n2)cc1 | inconclusive: 28.2 µM [inhibitor, single point] | 
15 | C/C=C/C=C/C(=O)[C@@H]1[C@@H]([C@]2(C)OC(=O)C(C)=C2O)[C@H]2/C(=C(O)/C=C/C=C/C)C(=O)[C@]1(C)C(=O)C2(C)O (stereo partly drawn) | inconclusive: 31.6 µM [inhibitor, single point] | 
16 | COc1ccc(/C=C/C(=O)NC(=S)NNC(=O)c2ccco2)cc1OC | inconclusive: 39.8 µM [inhibitor, single point] | 
17 | CS(=O)(=O)Nc1ccc(C2=NN(C(=O)c3ccco3)C(c3cccc(F)c3)C2)cc1 (stereo not drawn) | inconclusive: 31.6 µM [inhibitor, single point] | 
18 | Cc1oc2c(c1C(=O)NCc1cccnc1)C(=O)c1ccccc1C2=O | inconclusive: 5.62 µM [inhibitor, full curve, poor fit] | 
19 | O=C(NCc1ccco1)c1cnc2sccn2c1=O |  | inactive: -16.9%
20 | CC(NC(=O)COC(=O)c1ccc(Cl)cc1O)c1ccc(F)cc1 (stereo not drawn) | inconclusive: 31.6 µM [inhibitor, single point] | 
21 | CN(C(=O)c1cccs1)c1ccccc1C(=O)O | inconclusive: 5.01 µM [inhibitor, single point] | 
22 | CCSc1nnc(CNC(=O)C23CC4CC(CC(C4)C2)C3)n1Cc1ccccc1 |  | inactive: -1.77%

Row | Compound | Potency | activity change, negative = inhibition
23 | C/C(=N\NC(=O)CC(C)C)c1ccc(N2CCCCC2)cc1 | inconclusive: 39.8 µM [inhibitor, single point] | 
24 | CN1CCc2c(sc(/N=C/c3cc(Cl)ccc3O)c2C#N)C1 | inconclusive: 31.6 µM [inhibitor, partial curve] | 
25 | CC1(C)Cc2c(sc3c4nnnn4c4nnnn4c23)CO1 | inconclusive: 35.5 µM [inhibitor, single point] | 
26 | COc1ccccc1-c1nc(C#N)c(N2CCCCCC2)o1 | inconclusive: 12.6 µM [inhibitor, partial curve] | 
27 | CCCNC(=O)c1ccccc1NC(=O)c1ccc(CSc2ccccc2)cc1 | inconclusive: 35.5 µM [inhibitor, single point] | 
28 | CN(CC(=O)Nc1ccc(Cl)cc1)Cc1cc(=O)n2ccsc2n1 | inconclusive: 39.8 µM [inhibitor, single point] | 
29 | N#Cc1c(/N=C/C=C/c2ccccc2)sc2c1CCCC2 | inconclusive: 25.1 µM [inhibitor, single point] | 
30 | Cc1nn(-c2ccccc2)c2sc(C(=O)N(CC(=O)NC3CCCC3)Cc3ccco3)cc12 | inconclusive: 25.1 µM [inhibitor, single point] | 
31 | O=C(O)CCC(=O)CCC(=O)c1ccccc1 |  | inactive: 1.54%
32 | CCOc1cc(/C=N/NC(=O)CSc2nncn2C)ccc1OCc1ccccc1 |  | inactive: 5.51%
33 | Cc1ccc(C)c(S(=O)(=O)Nc2ccccc2C(=O)Nc2ccccc2N2CCOCC2)c1 | inconclusive: 35.5 µM [inhibitor, single point] | 
34 | Nc1cc(C(F)(F)F)ccc1Nc1ccccc1 | inconclusive: 28.2 µM [inhibitor, partial curve] | 
35 | CCOC(=O)Nc1ccc2c(CN3C(=O)NC4(CCCC4)C3=O)cc(=O)oc2c1 | inconclusive: 28.2 µM [inhibitor, partial curve] | 
36 | N#Cc1cccc(CS(=O)(=O)c2ccccc2)c1 |  | inactive: 11.3%
37 | CCOC(=O)CCSCC(=O)N1N=C(c2cccs2)CC1c1ccc(C)cc1 (stereo not drawn) | inconclusive: 28.2 µM [inhibitor, partial curve] | 
38 | CC(C)C(=O)NC(NC(=S)Nc1ccc(S(N)(=O)=O)cc1)C(Cl)(Cl)Cl (stereo not drawn) | inconclusive: 39.8 µM [inhibitor, single point] | 
39 | CC(C)Cc1nnc(NC(=O)CC(=O)Nc2ccccc2C(=O)O)s1 | inconclusive: 31.6 µM [inhibitor, single point] | 
40 | Cc1ccc(NC(=O)CCSCCC(=O)Nc2ccc(C)c(C)c2)cc1C |  | inactive: -1.01%
41 | O=c1cc(-c2ccc(O)cc2)oc2cc(OC3OC(CO)C(O)C(O)[C@H]3O[C@@H]3OC[C@@](O)(CO)C3O)cc(O)c12 (stereo partly drawn) | inconclusive: 35.5 µM [inhibitor, single point] | 
42 | CCC(=O)Nc1c(C(=O)N2CCN(c3ccccn3)CC2)cnn1-c1ccc(Cl)cc1 | inconclusive: 31.6 µM [inhibitor, single point] | 
43 | CC(=O)c1sc2nc(-c3cccs3)cc(C(F)(F)F)c2c1N | inconclusive: 12.6 µM [inhibitor, partial curve] | 
